Laboratory results: PubChem BioAssay AID588342 (National Center for Advancing Translational Sciences (NCATS), 2011)
The whole screen tested about 360,000 compounds, of which about 25,000 (6.9%) were called active. This list was built around the results that the source calls inconclusive (neither active nor inactive); the mix of calls is not that of the screen. The call rests on the fitted dose curve; in most records, active means well fitted inhibition curve with a large enough effect; inconclusive means small, poorly fitted or top-dose-only effect; inactive means flat fitted curve, though single readings scatter. Potencies beside an inconclusive call are fits to weak or partial responses and may not hold up.

What follows are molecules tested against Luciferin 4-monooxygenase (Photinus pyralis) (UniProt P08659) (assay: qHTS profiling assay for firefly luciferase inhibitor/activator using purifed enzyme and Km concentrations of substrates (counterscreen for miR-21 project)). Settings: purified FLuc, luminescence inhibition; series mostly up to 57.5 µM.
Chain of UniProt P08659 (P08659 whole entry, looked up): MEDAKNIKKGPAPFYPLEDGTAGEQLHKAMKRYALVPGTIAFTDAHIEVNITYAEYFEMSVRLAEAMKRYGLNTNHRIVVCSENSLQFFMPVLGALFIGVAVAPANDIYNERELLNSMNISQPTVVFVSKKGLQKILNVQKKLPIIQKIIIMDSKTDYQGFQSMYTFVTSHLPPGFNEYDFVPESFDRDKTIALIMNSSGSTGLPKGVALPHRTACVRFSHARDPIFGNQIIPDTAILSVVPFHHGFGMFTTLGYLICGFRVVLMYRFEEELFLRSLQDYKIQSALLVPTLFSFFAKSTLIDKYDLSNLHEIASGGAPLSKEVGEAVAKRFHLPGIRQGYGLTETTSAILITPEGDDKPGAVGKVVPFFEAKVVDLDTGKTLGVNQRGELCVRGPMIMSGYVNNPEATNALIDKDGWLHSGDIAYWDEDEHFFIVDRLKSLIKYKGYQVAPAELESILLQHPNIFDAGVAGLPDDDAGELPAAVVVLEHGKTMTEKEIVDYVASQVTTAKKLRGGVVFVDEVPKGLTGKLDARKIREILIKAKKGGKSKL
Procedure, shortened: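 Purified P. pyralis luciferase, 10 nM final, with Km-level 10 uM D-luciferin and 10 uM ATP in 50 mM Tris acetate pH 7.5, 10 mM Mg acetate, 0.01% Tween-20, 0.05% BSA; 6-point qHTS titration about 60 µM downward; luminescence read.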
Further: nearly all actives have a fitted effect of over 55% in size.
Potency means the concentration at half of the fitted maximal effect; tags describe the fitted curve by direction and shape.

Q: With c1ccc(-c2cc3ncc4c(n3n2)-c2ccccc2OC4)cc1 as the molecule, how does the Potency read?
A: inconclusive: 1.07 µM [inhibitor, partial curve, poor fit]

Q: CNc1ccc(-c2nc(-c3ccccc3C)no2)cc1[N+](=O)[O-] was tested. Which Potency did it give?
A: inconclusive: 9.53 µM [inhibitor, partial curve]

Q: With COc1ccc(CCNC(=S)c2ccccc2)cc1OC as the molecule, how does the Potency read?
A: inactive

Q: Which Potency does the source give for COc1cc(NC(=O)c2cccs2)ccc1NC(=O)c1ccccc1Cl here?
A: inconclusive: 19 µM [inhibitor, partial curve, poor fit]

Q: With Cc1cccc(C2NC(c3cccc(C)c3)C([N+](=O)[O-])C(C)(C)C2[N+](=O)[O-])c1 (stereo not given) as the molecule, how does the Potency read?
A: inactive

Q: How did the Potency turn out when COc1ccc2c(Cl)c(-c3nnc(SCC(=O)c4ccccc4)n3C)sc2c1 was run?
A: inconclusive: 15.1 µM [inhibitor, partial curve, poor fit]

Q: With O=C(N/N=C/c1ccccc1OCC(=O)N1CCCC1)C(=O)Nc1ccccc1F as the molecule, how does the Potency read?
A: active: 9.53 µM

Q: With c1ccc(-n2ncc3c(NCc4cccs4)ncnc32)cc1 as the molecule, how does the Potency read?
A: active: 12 µM

Q: Brc1ccccc1C1CC(c2ccccc2)=Nc2ccccc2N1 (stereo not given) was tested. Which Potency did it give?
A: inconclusive: 33.8 µM [inhibitor, single point]

Q: Which Potency does the source give for Cc1oc(-c2ccc3c(c2)OCCO3)cc1C(=O)O here?
A: active: 2.39 µM

Q: How did the Potency turn out when CN(Cc1ccccc1)C(=O)[C@H]1CCC(=O)N1Cc1ccco1 was run?
A: inactive

Q: How did the Potency turn out when COc1ccc(CNC(=O)Cn2c(=O)c3cccn3c3ccccc32)cc1 was run?
A: inactive

Q: For Cc1ccc(C2CC(=O)N3CN(c4ccc(Br)cc4)CSC3=C2C#N)o1 (stereo not given), which Potency is on record?
A: inconclusive: 23.9 µM [inhibitor, single point]

Q: With O=C(NC(=S)NCCc1ccccc1)c1ccco1 as the molecule, how does the Potency read?
A: inconclusive: 21.3 µM [inhibitor, single point]

Q: Cc1ccc(NS(=O)(=O)c2cccc(C(=O)N/N=C/c3c(C)nn(-c4ccccc4)c3N3CCCC3)c2)c(C)c1 was tested. Which Potency did it give?
A: inactive

Q: For Cc1ccc(-c2noc(CNC(=O)COc3ccccc3C)n2)cc1, which Potency is on record?
A: inactive

Q: For COc1ccc(-n2nc3cc(C)c(N)c(Br)c3n2)cc1, which Potency is on record?
A: active: 1.07 µM

Q: Cc1ccc(-c2nc3ccccc3o2)cc1NC(=S)NC(=O)c1cccs1 was tested. Which Potency did it give?
A: inconclusive: 21.3 µM [inhibitor, partial curve, poor fit]

Q: For N#CC1=C2SCN(C3CCCCC3)CN2C(=O)CC1c1ccc(Br)cc1 (stereo not given), which Potency is on record?
A: inconclusive: 13.5 µM [inhibitor, partial curve]

Q: How did the Potency turn out when C=CCn1c(=S)[nH]c2sc3c(c2c1=O)CCCC3 was run?
A: inconclusive: 37.9 µM [inhibitor, single point]

Q: For COc1ccccc1C/C(N)=N/OC(=O)c1ccc2c(c1)OCO2, which Potency is on record?
A: inconclusive: 21.3 µM [inhibitor, partial curve, poor fit]

Q: For CCCOc1ccc(CNC(=O)c2oc3ccc4c(c3c2C)C(=O)CC(C)(CC)O4)cc1 (stereo not given), which Potency is on record?
A: inconclusive: 5.36 µM [inhibitor, partial curve, poor fit]

Q: Which Potency does the source give for CC(C)(C)c1ccc(C(=O)Oc2ccccc2CCC(=O)O)cc1 here?
A: inconclusive: 30.1 µM [inhibitor, single point]

Q: How did the Potency turn out when Cc1ccc2[nH]c3c(N4CCCCCC4)ncnc3c2c1 was run?
A: active: 19 µM

Q: For Cc1oc2cc3oc(=O)c(CC(=O)N4CCCCC4)c(C)c3cc2c1C, which Potency is on record?
A: inactive

Q: For C=CCOc1ccccc1CNc1ccc2c(c1)OCCO2, which Potency is on record?
A: active: 0.849 µM

Q: For O=C(c1ccc(F)cc1F)N1CCC(c2nc(-c3ccc(S(=O)(=O)N4CCCC4)cc3)no2)CC1, which Potency is on record?
A: inactive

Q: COc1ccc(NC(=O)COC(=O)COc2ccc(Br)cc2)cc1 was tested. Which Potency did it give?
A: inconclusive: 21.3 µM [inhibitor, partial curve, poor fit]

Q: For CC(=O)N1CCC(=NNc2nc3ccccc3s2)CC1, which Potency is on record?
A: active: 16.9 µM

Q: How did the Potency turn out when CCOC(=O)c1c(CC(C)C)csc1/N=C/C1=C(O)CCCC1=O was run?
A: inactive

Q: With Cc1cccc(NC(=O)CSc2nnc(NC(=O)c3ccc(S(=O)(=O)N4CCOCC4)cc3)s2)c1C as the molecule, how does the Potency read?
A: inconclusive: 2.39 µM [inhibitor, partial curve]

Q: Cc1cc(C)cc(NS(=O)(=O)c2ccc(NC(=S)NC(=O)c3ccc(Br)o3)cc2)c1 was tested. Which Potency did it give?
A: inactive

Q: For CCN(CC)c1cc(C)c2cc(NC(=O)c3cccs3)ccc2n1, which Potency is on record?
A: inconclusive: 30.1 µM [inhibitor, partial curve, poor fit]

Q: How did the Potency turn out when Cc1c(-c2ccccc2)[nH]n2c(=O)c3c(nc12)CCCC3 was run?
A: active: 15.1 µM

Q: COCCNC(=O)/C(C#N)=C\c1ccc(CNC(=O)C(=O)Nc2ccc(C)c(C)c2)o1 was tested. Which Potency did it give?
A: inconclusive: 21.3 µM [inhibitor, partial curve, poor fit]

Q: With O=C(Nc1cccc(C(=O)O)c1)Nc1ccc2c(c1)OCO2 as the molecule, how does the Potency read?
A: active: 0.107 µM

Q: For O=C(Nc1nc2n(n1)C(c1ccccc1)C=C(c1ccccc1)N2)c1ccccc1 (stereo not given), which Potency is on record?
A: inconclusive: 19 µM [inhibitor, partial curve, poor fit]

Q: How did the Potency turn out when CS(=O)(=O)c1ccccc1-c1nnc(NC(=O)c2ccc3c(c2)OCCO3)o1 was run?
A: inconclusive: 23.9 µM [inhibitor, partial curve, poor fit]

Q: With COc1ccc(CNC(=O)CSc2n[nH]c(-c3ccc(F)cc3)n2)cc1 as the molecule, how does the Potency read?
A: inactive

Q: With C#CCOCCOCCOCCNc1nc(N2CCN(C(=O)[C@H](C(C)C)n3cc(CCO)nn3)CC2)nc(N2CCN(C(=O)[C@H](CCCCN)n3cc(CCCC)nn3)CC2)n1 as the molecule, how does the Potency read?
A: inconclusive: 26.9 µM [inhibitor, partial curve, poor fit]

Q: Which Potency does the source give for O=C(Nc1cc(F)c(Br)cc1F)c1ccc(Cl)cc1 here?
A: active: 2.69 µM

Q: For Fc1ccc(Nc2nc(SCc3cccc(Cl)c3)nc3ccccc23)cc1, which Potency is on record?
A: inactive

Q: COc1ccc(CNC(=O)C(CCSC)NS(=O)(=O)c2ccc3c(c2)oc(=O)n3C)cc1 (stereo not given) was tested. Which Potency did it give?
A: inactive

Q: With COc1ccc(CNC(=O)CN(C(=O)c2ccc(CN3CCOCC3)o2)C2CCCC2)cc1 as the molecule, how does the Potency read?
A: inconclusive: 26.9 µM [inhibitor, single point]

Q: Cc1ccnc(N/C=C(/NC(=O)c2ccccc2)C(=O)N/N=C\c2ccc(F)cc2)n1 was tested. Which Potency did it give?
A: inconclusive: 33.8 µM [inhibitor, partial curve, poor fit]
